Values joined by “and” are separate entries in the source; they are usually repeats but may differ in a detail not shown here. Equal entries are not always repeated.
System: transgenic Arabidopsis thaliana plants expressing wildtype or mutated PPO
Assay: Greenhouse tolerance test of transgenic T1 Arabidopsis plants (phytotox / injury rating 0-100)
Format: in vivo

Cc1nn(-c2cc(CC(Cl)C(=O)O)c(Cl)cc2F)c(=O)n1C(F)F (stereo not drawn) [Carfentrazone]
phytotox value, scale 0-100 (AMATU_PPO2 L397D_F420V, repetitions 1, 2, 200 g ai/ha): 20 and 10 | phytotox value, scale 0-100 (AMATU_PPO2 R128A_F420V, repetitions 1, 2, 100 g ai/ha): 10 | phytotox value, scale 0-100 (ARBTH WT, 50 g ai/ha): 100 | phytotox value, scale 0-100 (ARBTH WT, 100 g ai/ha): 100 | phytotox value, scale 0-100 (ARBTH WT, 200 g ai/ha): 100

CC(C)N(C)S(=O)(=O)NC(=O)c1cc(-n2c(=O)cc(C(F)(F)F)n(C)c2=O)c(F)cc1Cl [Saflufenacil, saflufenacil]
phytotox value, scale 0-100 (AMATU_PPO2 F420V, repetitions 1, 2, 50 g ai/ha, listed as Kixor): 50 and 30 | phytotox value, scale 0-100 (AMATU_PPO2 F420V, repetitions 1, 2, 100 g ai/ha, listed as Kixor): 65 and 70 | phytotox value, scale 0-100 (AMATU_PPO2 L397D, repetitions 1, 2, 50 g ai/ha, listed as Kixor): 65 and 50 and 70 | phytotox value, scale 0-100 (AMATU_PPO2 L397D, repetitions 1, 2, 100 g ai/ha, listed as Kixor): 85 and 80 | phytotox value, scale 0-100 (AMATU_PPO2 L397D, repetitions 1, 2, 200 g ai/ha, listed as Kixor): 95 and 85 and 90 | phytotox value, scale 0-100 (ARBTH WT, 50 g ai/ha): 100 | phytotox value, scale 0-100 (ARBTH WT, 100 g ai/ha): 100 | phytotox value, scale 0-100 (ARBTH WT, 200 g ai/ha): 100

C#CCN1C(=O)C(F)(F)Oc2cc(F)c(-n3c(=O)n(C)c(=S)n(C)c3=O)cc21
phytotox value, scale 0-100 (AMATU_PPO2 F420V, repetitions 1, 2, 75 g ai/ha, listed as BAS 850H): 30 and 40 | phytotox value, scale 0-100 (AMATU_PPO2 F420V, repetitions 1, 2, 150 g ai/ha, listed as BAS 850H): 60 and 40 and 65 | phytotox value, scale 0-100 (AMATU_PPO2 F420V, repetitions 1, 2, 300 g ai/ha, listed as BAS 850H): 70 and 50 and 40 | phytotox value, scale 0-100 (AMATU_PPO2 L397D, repetitions 1, 2, 150 g ai/ha, listed as BAS 850H): 75 and 70 | phytotox value, scale 0-100 (AMATU_PPO2 R128A_F420V, repetitions 1, 2, 300 g ai/ha, listed as BAS 850H): 30 and 20 | phytotox value, scale 0-100 (ARBTH WT, 75 g ai/ha): 100 | phytotox value, scale 0-100 (ARBTH WT, 150 g ai/ha): 100 | phytotox value, scale 0-100 (ARBTH WT, 300 g ai/ha): 100
